Measurements taken from article PMC4336329 (PLoS ONE, 2015).
Out of some 310,000 compounds screened, about 14,000 (4.5%) showed an effect of 50% or more. Effects have a minus sign here. This is one part of the list.

target: human ether-à-go-go-related gene (hERG) potassium channel (human, UniProt Q12809); assay: primary screen, population patch clamp on CHO cells stably expressing hERG
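Also: peak tail current of the secondary pulse compared with the same well before compound.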

Chain of human ether-à-go-go-related gene (hERG) potassium channel (Q12809 whole entry, looked up): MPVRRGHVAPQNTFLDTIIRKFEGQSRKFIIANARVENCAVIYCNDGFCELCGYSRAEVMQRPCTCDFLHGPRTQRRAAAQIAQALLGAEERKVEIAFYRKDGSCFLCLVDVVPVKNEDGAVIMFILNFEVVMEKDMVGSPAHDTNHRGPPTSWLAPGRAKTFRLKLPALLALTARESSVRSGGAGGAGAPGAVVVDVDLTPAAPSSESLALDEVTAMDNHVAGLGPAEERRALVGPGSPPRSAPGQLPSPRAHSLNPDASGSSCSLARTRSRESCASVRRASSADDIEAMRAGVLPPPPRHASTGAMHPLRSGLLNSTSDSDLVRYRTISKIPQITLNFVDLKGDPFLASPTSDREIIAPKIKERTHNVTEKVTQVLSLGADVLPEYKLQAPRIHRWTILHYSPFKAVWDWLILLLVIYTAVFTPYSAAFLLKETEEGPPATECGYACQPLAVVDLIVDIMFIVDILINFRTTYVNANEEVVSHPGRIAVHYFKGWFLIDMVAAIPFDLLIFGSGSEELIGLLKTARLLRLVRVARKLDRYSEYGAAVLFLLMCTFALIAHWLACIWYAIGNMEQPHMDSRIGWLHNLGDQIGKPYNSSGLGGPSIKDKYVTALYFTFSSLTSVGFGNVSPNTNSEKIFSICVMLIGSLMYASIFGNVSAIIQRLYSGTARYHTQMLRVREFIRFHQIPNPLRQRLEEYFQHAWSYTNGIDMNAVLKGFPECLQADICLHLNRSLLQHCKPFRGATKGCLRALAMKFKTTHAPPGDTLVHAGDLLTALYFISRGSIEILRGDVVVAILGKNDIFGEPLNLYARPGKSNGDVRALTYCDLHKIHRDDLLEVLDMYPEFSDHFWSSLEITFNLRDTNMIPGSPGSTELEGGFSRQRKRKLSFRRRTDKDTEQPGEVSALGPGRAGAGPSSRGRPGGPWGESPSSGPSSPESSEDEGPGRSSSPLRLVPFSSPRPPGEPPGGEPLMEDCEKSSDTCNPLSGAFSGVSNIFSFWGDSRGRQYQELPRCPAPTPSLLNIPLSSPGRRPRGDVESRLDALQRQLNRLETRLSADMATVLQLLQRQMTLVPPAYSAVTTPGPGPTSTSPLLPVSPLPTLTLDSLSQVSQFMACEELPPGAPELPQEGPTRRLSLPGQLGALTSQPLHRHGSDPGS

Row | SMILES | hERG current change (%, negative = inhibition) at 10uM
1 | Cn1c(N2CCCC2)nc2c1c(=O)n(Cc1cccc(F)c1)c(=O)n2C | -19.6%
2 | CCCOc1cccc(-c2nnc(NC(=O)c3ccco3)s2)c1 | -0.907%
3 | O=C(NCc1ccccc1)c1ncn[nH]1 | -3.43%
4 | COCCNC(C(=O)Nc1cc(Cl)cc(Cl)c1)c1ccccc1 (stereo not drawn) | -16.4%
5 | CCc1c(C)c(C#N)c2nc3ccccc3n2c1N(C)C | -4.78%
6 | O=C(N/N=C/c1ccccn1)C12CC3CC(CC(C3)C1)C2 | -0.609%
7 | CCn1c(SCC(=O)NCC2CCCO2)nnc1-c1ccc(S(=O)(=O)N2CCN(C)CC2)cc1 (stereo not drawn) | 8.59%
8 | Cc1ccc(C(C(=O)NCc2ccco2)N(C(=O)CNC(=O)c2cccs2)c2c(C)cccc2C)cc1 (stereo not drawn) | 6.76%
9 | CC1(C)COC(Nc2ccc(Cl)cc2)=N1 | -35.8%
10 | CCCN1CCN(CCCNC(=O)c2cc3c(=O)n(C)c4ccccc4c3n2C)CC1 | -14%
11 | CCC(=O)NC(=S)Nc1ccc(S(=O)(=O)NC(C)C)cc1 | -10.9%
12 | Cc1nc2cc(C(=O)NCc3cccnc3)ccc2n1-c1ccc(F)cc1F | 7.47%
13 | CC(=O)c1cccc(N2C(=NC(=O)COc3ccccc3)SC3CS(=O)(=O)CC32)c1 (stereo not drawn) | 9.49%
14 | CC(=O)NC(Cc1ccc(F)cc1)C(=O)NC1CCN(C(=O)Nc2cccc(C)c2)CC1 (stereo not drawn) | 6.17%
15 | C/C(=N\NC(=O)COc1ccccc1-c1ccccc1)c1ccc(O)cc1O | 24.7%
16 | CCOC(=O)Cc1csc(NC(=O)c2ccc(S(=O)(=O)N3CCOCC3)cc2)n1 | -2.52%
17 | C/C(CC(=O)Nc1cc(Cl)ccc1Cl)=N\NC(=O)c1ccccc1Br | 12.8%
18 | COc1ccc(N2C(=O)c3ccc(C(=O)Nc4ccccc4O)cc3C2=O)cc1 | 23.6%
19 | Cc1ccc(S(=O)(=O)Nc2nsc(N)n2)cc1 | 1.18%
20 | COc1ccc(/C=N\NS(=O)(=O)c2ccc(Br)cc2)cc1COc1ccccc1[N+](=O)[O-] | 11.1%
21 | COC(=O)c1ccc(NC(=O)C23CCC(C)(C(=O)O2)C3(C)C)cc1 (stereo not drawn) | 14.9%
22 | CN(C)c1ccc(Cl)cc1N.Cl | 19.5%
23 | Cc1ccc(NC(=O)COC(=O)CCCC2=NS(=O)(=O)c3ccccc3N2)cc1C | 14.6%

Row | SMILES | hERG current change (%, negative = inhibition) at 10uM
24 | Cc1cc(-n2cnc(-c3cn[nH]c3C)n2)no1 | 13.3%
25 | Cc1ccc(C)c(OCCC(=O)NNC(=O)c2ccccc2)c1 | -0.158%
26 | CC1CC(CC(=O)NC(=S)Nc2ccccc2Cl)C(=O)O1 (stereo not drawn) | 8.4%
27 | Cn1c2c(c(=O)n(C)c1=O)C(CC(=O)Nc1ccccc1F)C(=O)N2 (stereo not drawn) | 19.3%
28 | Cc1nnc(NC(=O)c2ccc(S(=O)(=O)N(C)c3ccccc3)cc2)s1 | 13.1%
29 | Cc1ccc(S(=O)(=O)NNC(=O)Cc2cccn2C)cc1 | 11.2%
30 | O=C1COC(c2ccccc2)C2CCCCN12 (stereo not drawn) | 13.4%
31 | O=c1c2cnn(-c3ccccc3)c2nc(-c2cccs2)n1-c1ccc(Br)cc1 | -11.5%
32 | CC(=O)c1sc(NC(=O)c2ccc(COc3ccccc3Cl)o2)nc1C | 33.5%
33 | CC(=O)Nc1cc(C(=O)O)ccc1S(=O)(=O)c1ccc(C)cc1 | 6.18%
34 | CCCC(C(=O)OCC)P(=O)(c1ccccc1)c1ccccc1 (stereo not drawn) | -6.54%
35 | COC(=O)Cc1[nH]c(Cl)nc1C(N)=O | 4.96%
36 | CCC1(CC)NC(=O)N(CC(=O)OC(C)C(=O)Nc2ccccc2OC)C1=O (stereo not drawn) | 32.3%
37 | CC(=O)Nc1sc2c(c1C(N)=O)CCCC2 | 22.8%
38 | O=C(/C=C/NNC(=O)c1ccccc1)c1ccc(Br)cc1 | 6.88%
39 | CC(=O)N=c1sc2c3ccccc3ccc2n1C | -3.72%
40 | CN(C)CCNC(=O)/C(=N\O)c1ccccn1 | 16.1%
41 | CC(=O)c1ccc(NC(=O)[C@@H]2CCCN2C2=NS(=O)(=O)c3ccccc32)cc1 | 2.69%
42 | O=C(Nc1ccc2ccccc2c1)N1C[C@H]2C[C@@H](C1)c1cccc(=O)n1C2 | 1.15%
43 | C=CCN1CC(=O)N2C(C)c3[nH]c4ccccc4c3C[C@H]2C1=O (stereo partly drawn) | 9.97%
44 | CCOc1ccc(NC(=O)c2cc(S(=O)(=O)N3CCOCC3)cn2C)cc1 | 6.18%
45 | O=C(O)C1CCCCN1S(=O)(=O)c1ccc(Cl)s1 (stereo not drawn) | 2.15%
46 | CCN(CC)S(=O)(=O)c1cccc(C(=O)NC(C(=O)NC2=NCCS2)C(C)C)c1 (stereo not drawn) | -13.4%

Row | SMILES | hERG current change (%, negative = inhibition) at 10uM
47 | O=S(=O)(c1ccc2c(c1)OCCO2)N1CCNCC1 | 6.08%
48 | Cc1c(NC(=S)NC(=O)c2ccccc2)c(=O)n(-c2ccccc2)n1C | -21.3%
49 | CC(C)CN1CC(C(=O)O)CC1=O (stereo not drawn) | 32.5%
50 | CCOc1cc(N2CCOCC2)c(OCC)cc1NC(=O)COC(=O)CCOc1cc(C)ccc1C | -5%
51 | Oc1ccc(C2=NNC(=NCc3ccc4c(c3)OCO4)SC2)c(O)c1 | 3.29%
52 | O=C1NN(c2ccccc2)C(=O)/C1=C/c1ccc(-c2ccc(C(=O)O)cc2)o1 | 18.2%
53 | O=C(COc1ccc(Cl)cc1)Nc1ccc(Cc2ccncc2)cc1 | -47.7%
54 | O=C(NC(=S)Nc1ccccc1)c1cccs1 | 23.9%
55 | OCCN1c2ccccc2CCc2ccccc21 | 12%
56 | O=C(NCCc1ccc(Cl)cc1)Nc1ccc(F)cc1 | 32%
57 | COCCn1nnnc1C(c1cc2cc(OC)ccc2[nH]c1=O)N1CCC(Cc2ccccc2)CC1 (stereo not drawn) | -10.9%
58 | Cc1cc(=O)[nH]c(Nc2ccccc2C)n1 | -0.453%
59 | O=C(c1csc2c1CCCC2)n1cccn1 | -14.9%
60 | COc1cccc(CNC(=O)COC(=O)CCc2cc(OC)c(OC)c(OC)c2)c1 | 10.8%
61 | Cc1cnc(C(=O)OCC(=O)NC23CC4CC(CC(C4)C2)C3)cn1 | -14.9%
62 | CN(CC(=O)Nc1ccc(F)cc1)c1ccc(S(=O)(=O)N2CCCC2)cn1 | -14%
63 | CCN(CC)c1ccc(NC(=S)NC(=O)Cc2ccccc2)cc1 | 13.5%
64 | CC(=O)c1ccc(N=Nc2ccc(N(C)C)cc2)cc1 | 18.6%
65 | Oc1ccc(/C=C/c2ccc3ccccc3n2)cc1 | 45.6%
66 | COc1ccc(NC(=S)N2CCN(Cc3ccco3)CC2)c(OC)c1 | -1.37%
67 | COc1ccc2oc(=O)c(C(=O)Nc3cccc(C)c3)cc2c1 | 13.6%
68 | O=C(c1cccc(Br)c1)N1CCN(c2ccc(N3CCOCC3)nn2)CC1 | -25.2%
69 | O=C(/C=C/c1ccco1)NC(=S)Nc1ccccc1O | 20.3%

Row | SMILES | hERG current change (%, negative = inhibition) at 10uM
70 | N#Cc1ccc(-c2ccc(C3Nc4ccccc4C(=O)N3O)o2)cc1 (stereo not drawn) | -5.97%
71 | CCOC(=O)c1ccc(S(=O)(=O)NC2CC2)cc1 | 5.21%
72 | Cc1ccc(Cl)cc1-c1ccc(/C=N/n2cnnc2)o1 | -13%
73 | COC(=O)c1c(NC(=O)C2C3CCC(O3)C2C(=O)O)sc2c1CCCCCC2 (stereo not drawn) | -4.13%
74 | Cn1ccsc1=NC(=O)c1ccc(Cl)cc1 | 8.31%
75 | N#C/C(=C\Nc1ccccc1SC(F)(F)F)c1nc(-c2ccc(Cl)cc2)cs1 | 16.1%
76 | COc1ccc(C2c3ccc(O)cc3Oc3ncn(CCN4CCOCC4)c(=N)c32)cc1 (stereo not drawn) | -28.1%
77 | CCOc1cc(NC(=O)C2CCCO2)c(OCC)cc1NC(=O)C1CC1 (stereo not drawn) | -14.6%
78 | NC1=C(c2ccc([N+](=O)[O-])cc2)C(=O)CO1 | 3.56%
79 | Cc1ccc(C(=O)N/C(=C\c2ccco2)C(=O)NCCCn2ccnc2)cc1C | -39.8%
80 | COC(=O)C1(CO)NC(c2cccs2)C2C(=O)N(c3ccccc3)C(=O)C21 (stereo not drawn) | 9.63%
81 | COc1ccccc1N1C(=O)CC(N2CCN(c3ccc([N+](=O)[O-])cc3)CC2)C1=O (stereo not drawn) | -68.6%
82 | CCOc1cc(/C=N/NC(=O)c2cc(C3CC3)[nH]n2)ccc1O | -14.8%
83 | COc1ccc(OCC(O)CN2CCC(CN3C(=O)c4cccc5cccc(c45)C3=O)CC2)cc1.Cl (stereo not drawn) | -59.1%
84 | CC(C)c1cccc(C2=CC(=O)C[C@H](c3ccc(F)cc3)C2)c1 | 1.48%
85 | COC(=O)c1ccc(NC(=O)c2cccc(OC)c2)cc1 | -3.77%
86 | O=C(NCCN1CCN(C(=O)c2ccc([N+](=O)[O-])cc2)CC1)C(=O)NCc1ccccc1 | -78.9%
87 | CCOC(=O)CNC(=O)CN1CCC(c2nc3ccccc3[nH]2)CC1 | 13.7%
88 | Cn1c2ccccc2c(=O)c2cc(C#CC3=CCCCC3)ccc21 | 8.87%
89 | Cc1ccc(S(=O)(=O)N2CCOCC2)cc1C(=O)NCCCn1ccnc1 | 15.6%
90 | O=C1N/C(=C/c2cccn2-c2ccccc2)C(=O)N1c1cccc(Cl)c1 | 5.89%
